Assay results: article PMC4336329 (PLoS ONE, 2015)
The campaign covered roughly 310,000 compounds. About 2,200 (0.71%) showed an effect of 50% or more. The effect is printed as a negative number. This is one part of the list.

molecular target: human ether-à-go-go-related gene (hERG) potassium channel (human, UniProt Q12809); test: primary screen, population patch clamp on CHO cells stably expressing hERG
Sequence (Q12809 whole entry, looked up): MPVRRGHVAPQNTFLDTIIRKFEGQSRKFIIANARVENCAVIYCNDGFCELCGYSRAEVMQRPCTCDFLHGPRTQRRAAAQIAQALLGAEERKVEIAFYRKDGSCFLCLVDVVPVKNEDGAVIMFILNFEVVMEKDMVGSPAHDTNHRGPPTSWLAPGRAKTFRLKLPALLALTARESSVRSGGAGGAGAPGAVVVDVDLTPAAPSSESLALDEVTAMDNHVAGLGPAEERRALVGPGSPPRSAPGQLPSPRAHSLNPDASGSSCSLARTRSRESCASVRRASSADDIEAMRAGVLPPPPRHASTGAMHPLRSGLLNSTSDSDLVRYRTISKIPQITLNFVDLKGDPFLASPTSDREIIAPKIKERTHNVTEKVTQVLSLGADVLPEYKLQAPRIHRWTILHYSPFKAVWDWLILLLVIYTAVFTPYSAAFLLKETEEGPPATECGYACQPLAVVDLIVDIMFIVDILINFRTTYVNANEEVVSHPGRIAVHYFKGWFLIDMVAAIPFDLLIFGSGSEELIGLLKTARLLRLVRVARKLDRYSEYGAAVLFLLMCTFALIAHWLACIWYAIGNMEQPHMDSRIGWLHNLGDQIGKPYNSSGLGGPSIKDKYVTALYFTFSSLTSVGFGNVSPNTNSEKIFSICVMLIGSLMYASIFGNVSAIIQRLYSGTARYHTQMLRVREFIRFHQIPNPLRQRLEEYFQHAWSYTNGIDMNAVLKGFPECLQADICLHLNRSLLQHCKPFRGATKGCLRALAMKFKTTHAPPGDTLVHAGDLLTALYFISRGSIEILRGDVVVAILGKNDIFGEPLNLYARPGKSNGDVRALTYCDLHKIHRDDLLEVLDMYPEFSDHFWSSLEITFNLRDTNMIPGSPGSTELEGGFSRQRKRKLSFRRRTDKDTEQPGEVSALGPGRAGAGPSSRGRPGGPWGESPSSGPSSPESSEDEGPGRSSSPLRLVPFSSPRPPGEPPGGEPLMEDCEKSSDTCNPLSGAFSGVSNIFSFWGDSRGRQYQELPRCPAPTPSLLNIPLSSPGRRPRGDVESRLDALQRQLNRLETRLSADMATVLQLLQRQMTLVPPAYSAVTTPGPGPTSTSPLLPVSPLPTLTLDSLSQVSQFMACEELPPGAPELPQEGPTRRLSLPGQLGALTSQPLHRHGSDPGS

| SMILES | hERG current change (%, negative = inhibition) at 1uM |
| --- | --- |
| CC(=O)Nc1ccc2nc(CN3CCN(Cc4ccc(F)cc4)C(CCO)C3)ccc2c1 (stereo not drawn) | 5.81% |
| Cc1c(Cl)cccc1NC(=O)CCCN1C(=O)CCC1=O | 16.3% |
| COc1cccc(C(=O)C2CCCN(C(=O)c3ccccc3Cl)C2)c1 (stereo not drawn) | 13.2% |
| CCOc1ccccc1-n1nnnc1SCC(=O)NC(=O)Nc1ccc2c(c1)OCCO2 | 9.7% |
| Cc1c(Cl)cccc1NC(=O)CSc1nccn1C | 10.8% |
| COc1cccc(-n2cc3c(=O)n(C)c(=O)n(C)c3c2)c1 | 8.62% |
| CCOC(=O)COc1ccc(S(=O)(=O)Nc2ccc3c(c2)OCCO3)cc1 | 6.16% |
| Cc1ccc(N(Cc2ccccc2F)S(C)(=O)=O)c(C)c1 | 9.26% |
| Cc1sc(NC(=O)CN2CCOCC2)c(C#N)c1C | 6.46% |
| CCOC(=O)[C@@H]1[C@H]2COc3ccccc3[C@H]2N2C(=O)N(c3ccc(F)cc3)C(=O)[C@]12C | 6.09% |
| CCOC(=O)C1=C(N)Oc2c(c(=O)[nH]c3ccccc23)C1c1ccccc1 (stereo not drawn) | 8.82% |
| O=S(=O)(NCc1cn2ccccc2n1)c1cccs1 | 7.56% |
| Cc1cccc(CSCc2nnc(N)s2)c1 | 3.45% |
| COc1ccc(/C=C(\NC(=O)c2ccccc2)C(=O)N/N=C/c2cccnc2)cc1 | 6.5% |
| O=C(O)c1nc(NCCc2ccccc2)ncc1Cl | 13.3% |
| CCn1cc(CNc2nc3nonc3nc2N2CCCCC2)cn1 | 2.1% |
| CC(NC(=O)c1ccco1)C(=O)OC(C)C(=O)NCc1ccccc1 (stereo not drawn) | 8.37% |
| COc1ccccc1C(=O)NC(CCSC)C(=O)NNC(=O)c1ccc(F)cc1 (stereo not drawn) | 13.3% |
| COc1ccc(OC)c(N/C=C/C(=O)c2ccccc2)c1 | 12.9% |
| O=C(CCN1CCCCC1)Nn1c(=S)[nH]c2ccccc2c1=O | 12% |
| Cc1cc(/C=C2/SC(=O)N(CC(=O)OC(C)C)C2=O)c(C)n1C | 5.09% |
| CCc1nonc1NC(=O)c1oc2ccc(Br)cc2c1C | 10.9% |
| COc1cccc(N(CC(=O)N2CCN(c3ccccc3OC)CC2)S(C)(=O)=O)c1 | 14.5% |

| SMILES | hERG current change (%, negative = inhibition) at 1uM |
| --- | --- |
| C=C(C)Cn1c(C)cc(C)c(S(=O)(=O)c2ccccc2C)c1=O | 17.7% |
| O=C(NN1C(=O)NC2(CCCCC2)C1=O)c1cc2ccccc2o1 | 29.1% |
| O=C(NCc1cccnc1)c1ccc(CN2CCc3ccccc3C2)cc1 | 12.9% |
| N/C(=N\[N+](=O)[O-])N1CCN(C(=O)c2ccccn2)CC1 | 10% |
| O=C(NCc1ccccc1)C(c1ccccc1)N(C(=O)c1csnn1)c1ccccc1 (stereo not drawn) | 3.01% |
| COc1cc2c(c3oc(-c4ccccc4)cc(=O)c13)C=CC(C)(C)O2 | -5.53% |
| Cc1ccc(S(=O)(=O)c2cnc(-c3ccccc3)nc2N2CCCCC2)cc1 | -3.59% |
| CSCCC(NS(=O)(=O)c1ccc(C)cc1)C(=O)N1CCCC1 (stereo not drawn) | 12.5% |
| CCN(CC)S(=O)(=O)c1ccc(N2CCOCC2)c(NCC(=O)Nc2ccc(F)cc2)c1 | 13.7% |
| O=C(NC1CCCCCC1)C1CCN(S(=O)(=O)N2CCC3(CC2)OCCO3)CC1 | 11.9% |
| CCOC(=O)c1nsnc1NCCCl | 2.67% |
| O=S(=O)(c1ccc(OCC(O)CN2CCC(Cc3ccccc3)CC2)cc1)N1CCOCC1 (stereo not drawn) | -10.3% |
| COc1ccc2oc(=O)c(C(=O)N3CCc4ccccc43)cc2c1 | 10.1% |
| Cc1c(C(O)CN2CCN(Cc3ccc4c(c3)OCO4)CC2)c2ccccc2n1C (stereo not drawn) | -46% |
| NC(=O)c1ccsc1NC(=O)c1ccc2c(c1)CCCC2 | 11.7% |
| COC(=O)CSc1nnc(C)n1-c1cccc(OC)c1 | 5.92% |
| O=C(c1ccc2c(c1)N(Cc1ccccc1)C(=O)CS2)N1CCOCC1 | 1.45% |
| CCn1cc(CNC(=O)/C=C/c2ccc([N+](=O)[O-])cc2)c(C)n1 | -7.18% |
| COc1ccc(-c2cc(=NCC(=O)O)c3ccccc3o2)cc1.[O-][Cl+3]([O-])([O-])O | 2.51% |
| COCC1CCCCN1Cc1cn[nH]c1-c1ccc2cc(OC)ccc2c1 (stereo not drawn) | -43.9% |
| O=C(Nc1ccc(F)cc1)c1cccc(N2C(=O)C3C4C=CC(C4)C3C2=O)c1 (stereo not drawn) | -0.156% |
| Cc1ccccc1NC(=O)N1CCN(c2ncccn2)CC1 | 8.62% |
| Cn1c(=O)[nH]c(=O)c2c1nc(Br)n2CC(O)c1ccccc1 (stereo not drawn) | 12.6% |

| SMILES | hERG current change (%, negative = inhibition) at 1uM |
| --- | --- |
| CC(Cc1ccccc1)C(=O)NCCO (stereo not drawn) | 13.5% |
| c1ccc(C(c2ccccc2)c2nc(-c3cccnc3)no2)cc1 | 7.91% |
| CCCC1OC23CCCCC2C(C#N)(C#N)C1(C#N)C(=N)O3 (stereo not drawn) | 0.185% |
| O=C(O)CCn1cc(C=C2C(=O)NC(=S)NC2=O)c(-c2ccccc2)n1 | 15.5% |
| O=S(=O)(Nc1nnc(C(F)(F)F)s1)c1ccc(Cl)cc1 | 10.5% |
| CCCCN=C(Nc1ccc(Cl)cc1)c1cccnc1 | 15.7% |
| O=C(Cn1cc(C(=O)COc2ccccc2)c2ccccc21)NCc1ccco1 | 5.03% |
| COc1ccc(Cc2nc3ccc(C(=O)NCCc4cccc(C)n4)cc3o2)cc1 | 5.65% |
| CN1C(C(=O)NCc2ccc(OC(F)(F)F)cc2)CC2Cn3c(nc4ccccc43)C21 (stereo not drawn) | -74.9% |
| CCCCC(=O)N(CCC)CCC | 8.41% |
| Cc1ccc(CCC(=O)Nc2ccc(C#N)cc2)o1 | 9.46% |
| COC(=O)c1ccccc1NC(=O)Oc1ccc(C(C)C)cc1 | 0.839% |
| O=S(=O)(/C=C/c1ccccc1)N1CCN(Cc2ccccc2)CC1 | 11.6% |
| CCCSc1nnc(CNC(=O)C23CC4CC(CC(C4)C2)C3)n1Cc1ccccc1 | 12.2% |
| CC1(C)OC(=O)C(=Cc2ccc(-c3ccc(Cl)c(C(=O)O)c3)o2)C(=O)O1 | 8.14% |
| O=C(O)CCCN1C(=O)C2C3c4ccccc4C(c4ccccc43)[C@@H]2C1=O (stereo partly drawn) | 14.1% |
| COc1ccc(NC(=O)c2cc(S(=O)(=O)N3CCCC3)cn2C)cc1Cl | 9.44% |
| Cc1cc(C)c(C)c(S(=O)(=O)NCC(=O)N2CCCC2)c1C | 9% |
| COc1ccc(N2CC(NS(=O)(=O)c3cccnc3)CC2=O)cc1OC (stereo not drawn) | 28.9% |
| COc1ccc(Cc2nc3ccccc3n2CC(=O)N/N=C/c2ccccc2)cc1OC | 12.6% |
| Cc1ccccc1NC(=O)/C(=C\c1cccs1)NC(=O)c1ccccc1 | -0.47% |
| CCN(CC)C(=O)COC(=O)c1ccc(C)c(NC(=O)c2ccco2)c1 | 15.9% |
| Cn1nc(-c2ccccc2)c(C(=O)NCC(=O)O)c1Cl | 16.6% |

| SMILES | hERG current change (%, negative = inhibition) at 1uM |
| --- | --- |
| Cc1ccc(Oc2ccc(S(=O)(=O)N3CCOCC3)cc2C(N)=O)c(-n2nc3ccccc3n2)c1 | -1.4% |
| Cc1cccc(NC(=O)CSCC(=O)N2CCN(Cc3ccc4c(c3)OCO4)CC2)c1 | 7.37% |
| COc1ccc(CCNC(=O)COC(=O)/C=C/c2ccc(OC)c(OC)c2)cc1 | 12.2% |
| O=C(NCc1ccc2c(c1)OCO2)c1c[nH]c2ccc(S(=O)(=O)N3CCOCC3)cc2c1=O | -0.846% |
| Cc1ccc(/C=C/C(=O)CCC(=O)O)cc1 | 12.7% |
| CCCC1CCC(=C(C#N)C(N)=O)CC1 (stereo not drawn) | 0.211% |
| CCN(CC)S(=O)(=O)c1ccc(O)c(NC(=O)c2ccc(N3CCOCC3)c([N+](=O)[O-])c2)c1 | 6.35% |
| CC(C)(C)C(=O)Nc1nc(NC(=O)C(C)(C)C)nc(-c2ccccc2Cl)n1 | 13.9% |
| CC1COc2ccccc2N1S(=O)(=O)c1ccc(Cl)cc1 (stereo not drawn) | 0.0956% |
| CCc1ccc(CN2CCN(Cc3ccc(SC)cc3)CC2)cc1.O=C(O)C(=O)O | -27.1% |
| O=C(/C=C/c1ccccc1)OCc1cnc(Cl)s1 | 9.35% |
| Cc1[nH]c2ccccc2c1CCO | 6.26% |
| CCN1C(=O)[C@H]2[C@@H](c3ccc(-c4ccc(Cl)c(Cl)c4)cc3)N3CCCC[C@@]3(C(=O)OC)[C@H]2C1=O.O=C(O)C(F)(F)F | 21.3% |
| ClC1(Cl)CC1Cn1c(C2CC2)nc2ccccc21 (stereo not drawn) | 13.2% |
| O=C(c1ccco1)N1CCN(C(=O)C2CCN(S(=O)(=O)Cc3ccccc3)CC2)CC1 | 8.18% |
| Cc1cccc(N2CCN(c3nc4ccc(Cl)cc4n4cnnc34)CC2)c1C | 11.9% |
| COc1ccc(NC(=O)c2ccc3nccnc3c2)cc1 | 15.1% |
| Cc1cc(C)c2c(N)c(C(=O)N3CCCCCC3)sc2n1 | -7.9% |
| COc1ccc(NC(=O)Nc2ccc(OCc3ccccc3)cc2)cn1 | 15% |
| O=C(O)C1=C[C@@H](C2CCCCC2)C[C@@H](OCCCCO)O1 | 8.45% |
| Cc1cc(C2(c3ccc(O)c(C)c3)C(=O)Nc3ccccc32)ccc1O | -2.76% |
